Assay results as given in the supplement of paper PMC3334620.
The full ranking holds about 33,000 sequences; the median of “E-score (-0.5 to 0.5)” is about -0.04, and the highest 2% start at about 0.36. Some of the results follow.

Target: T1, Hmlalpha2 (UniProt P0CY09)
T1 sequence: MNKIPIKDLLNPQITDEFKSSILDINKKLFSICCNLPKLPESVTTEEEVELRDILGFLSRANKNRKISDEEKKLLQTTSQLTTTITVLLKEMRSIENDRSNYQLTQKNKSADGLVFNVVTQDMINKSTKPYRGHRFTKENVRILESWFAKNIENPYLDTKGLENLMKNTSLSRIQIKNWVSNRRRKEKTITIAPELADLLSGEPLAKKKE
Test: PBM E-score (8-mer binding enrichment) (E-score (-0.5 to 0.5)); higher = stronger / more preferred TF binding; most listed sequences are background and not binding sites
Conditions: protein concentration: 200 nM; construct: GST-full length
Summary of the method: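 Bound GST-tagged yeast transcription factors, applied at about 100-200 nM to double-stranded universal all-10-mer Agilent arrays, were detected with fluorescent anti-GST. Scans were normalised with masliner. A modified Wilcoxon-Mann-Whitney statistic, the E-score, was assigned to each ungapped eight-base word pooled with its reverse complement by the Universal PBM Analysis Suite.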

Sequence | PBM E-score
AAGGGAGT | -0.219
CATGAAGA | 0.137
GTCCTATA | -0.0572
AGACGAAG | 0.0678
AACGTGGA | 0.198
AAATGCAA | 0.0646
CGACGATA | 0.00205
ACGCAAAG | -0.0365
AAAGTCCT | -0.214
ACGACTTG | 0.0466
GTGTCTAA | 0.291
GAGTCTCC | -0.271
CCCTCGGC | -0.204
CAAATCTA | 0.146
GCAAACAC | 0.157
ATTCCTGC | -0.121
CGACAAAG | 0.126
AAGTTTTC | 0.0613
CGCGAACC | 0.00161
CTGTTCTC | -0.0912
GCACTACC | -0.121
ACAGTCGA | -0.121
AAGCAGCG | 0.13
GCAATCCC | -0.164
GAATGAAC | 0.149

Sequence | PBM E-score
AGGTAACA | 0.291
AAAAGAAA | 0.0596
GAACCCGA | -0.145
CAGAACGC | -0.0459
GCACGCGA | 0.029
CTAAGTCC | -0.395
CTCACTCC | -0.201
CTGAGTTC | 0.0144
GGGGTGAC | -0.129
TACCCAAA | 0.0217
CCGCAAAC | -0.0215
ACACTATG | 0.135
GGGCAACC | -0.288
ACTTGTAT | 0.254
AGCTCAAG | -0.218
CTATAGGC | -0.171
CTTGAAAG | -0.0812
CCACCGAG | -0.341
GCGCGAGC | -0.39
CGTTCCCA | -0.181
CAACAATG | 0.301
CCGATTGC | 0.0705
CATATTTC | 0.0458
GTGGACAC | 0.0372
CCCCATAG | -0.203

Sequence | PBM E-score
AGCATCAG | -0.136
ATAGTCCA | -0.077
ACGAGGTA | 0.0171
AAATATTA | 0.317
CCGTCGAA | -0.155
ATCAATCC | -0.169
CGTAACTC | 0.0663
AGGTTCAT | -0.158
CATACCAC | -0.03
CCGCGTGC | -0.117
GATTAAAA | 0.172
CACATGGC | 0.0319
AGAAGACC | -0.261
CTGTACTA | 0.113
ACAAATGG | 0.183
CTACACGC | 0.428
AAGTTACA | 0.297
AGTCGCGA | -0.0755
TAGTGTGA | 0.0401
AGCTATCC | -0.278
CCCGAGGC | -0.283
ACGGGTTA | -0.147
CCAACTCG | 0.00221
ATGCCAAG | -0.124
CCTGCCGA | -0.235

Sequence | PBM E-score
GTACACTA | 0.135
TCCATAGA | -0.143
CTATGGCC | -0.191
CCCGGGAC | -0.306
CTTGTGTC | 0.0968
TCACAAAA | 0.141
AGCACGGA | 0.051
CCCTGGAA | -0.378
ACGTATCC | -0.0857
TGGATAAA | -0.0263
ACACACCC | 0.263
CGTTGTCC | 0.136
ACCTCGAG | -0.00365
CACCGCGG | -0.229
ACCTCACA | 0.0475
CATTATTA | 0.17
CCTTAAAC | -0.15
CGGACCGA | -0.0774
TGGGGACA | -0.151
AGACATTA | 0.198
GAGTCTCA | -0.328
ATTGTGAA | 0.156
CAAAGGCG | 0.0132
GCAAGGTA | 0.0236
CAGCCCCA | -0.2

Sequence | PBM E-score
GGATACAA | 0.251
CCTATGAA | -0.065
ATAATCTG | -0.0832
AGGATCAA | -0.0375
CAAGATCA | -0.0183
ACCCCACC | -0.209
AAATCCCT | -0.188
CGACTCAG | -0.224
ACTTACTA | 0.072
CTTTCTAA | 0.138
ATACCCCA | -0.153
AATCTGGA | 0.0142
AGCGGCTC | -0.117
GGCCATAA | -0.247
AATACATC | 0.368
CCGGATAC | -0.186
CGAGAGAG | -0.108
CGAACGAG | -0.033
CCATTAGG | -0.244
GTCGTTGA | 0.118
AACATTCA | 0.0991
GGCGGCCC | -0.293
AATACGAC | 0.151
ACTTTGGG | -0.24
AAGGTACG | 0.0982

Sequence | PBM E-score
GTGAATGA | -0.00596
CAGACTGC | -0.127
ACTCGTAG | 0.0597
AGACCGCG | 0.0522
ACAATTAC | 0.376
TCTAAGAA | 0.128
AACCCCTA | -0.243
GCCAGCGC | -0.251
ATACTTGA | 0.23
GCCGGGCA | -0.334
AGAGATAG | -0.0703
ACTGGTTG | -0.0324
ATCAACGG | 0.00775
CCTATCAG | -0.143
CAGATACC | -0.251
AGCCGATC | -0.04
GAAAATGC | -0.0305
AGTCAGAC | -0.161
AGAGCCTG | -0.111
GCAATGCA | 0.0279
CCACCTGG | -0.258
ATTTGTGC | 0.0208
ATGTTTCG | 0.211
CGTGGTAA | 0.234
TAAGGAGA | -0.0786

Sequence | PBM E-score
ACCGCTAT | -0.124
ATCCACCG | -0.0829
CCCTTGAA | -0.138
CCTCTTTC | -0.349
GTCCACCA | -0.147
GCGTGAGC | -0.0629
CAGTTTGG | -0.232
GGTTCTAA | 0.0008
CATTACAC | 0.474
CGATATGC | -0.117
CTCTAACA | 0.207
AAGTGGCG | -0.0817
CTGAAGGA | -0.321
CATTCTGG | -0.0567
AGTAGTCC | -0.0822
AATTCTTC | -0.00112
CTCTAGTA | 0.0413
GCTCGTGA | -0.249
ACCACGAT | 0.163
ACCCACCA | -0.209
CATCCGGA | -0.113
ATGTCGAA | 0.347
GGGGCGGA | -0.415
TACACTCA | 0.285
AATGAATG | 0.0645

Sequence | PBM E-score
CTAAAACA | 0.306
AGACTCAA | -0.0314
CTTAGAAC | 0.139
CATTAGAG | -0.127
CCTCGGTC | -0.292
TGTTTTAA | 0.382
CGAATGGA | -0.0134
AATTAAAA | 0.216
CATACACA | 0.336
ACGTTTAC | 0.318
ATTCCCGA | -0.104
GGGCACAC | -0.25
CACAGGCC | 0.0776
CATTTCGA | 0.0151
CTGGAATC | -0.0553
GAGCGGGA | -0.161
TCATTGAA | 0.00565
CATCTGGC | -0.125
AAATTATA | 0.167
CCGGAAGG | -0.237
AAGCCAAA | 0.0236
ACGTTGAG | 0.151
CTTTAACC | -0.0213
AACTATGC | 0.121
ATAAACTG | 0.0806

Sequence | PBM E-score
CATAGCCC | -0.0214
TAGAATAA | 0.237
CTTGGTGA | -0.214
AATTAAGC | 0.0787
CCTGAGTA | 0.17
CTCAGTAA | -0.0267
CTGGCCGC | -0.162
GAATAAGA | -0.145
AGCGATGG | -0.278
AAATGCTG | 0.229
GAGACTAC | -0.0959
AAGACTGA | -0.0912
CCGAAAAC | 0.0225
GTCGCTGA | -0.154
GACCACAA | -0.253
AATGGTAG | 0.0738
CCAATTAC | 0.299
GTACTAAC | 0.263
CATCAAGG | -0.102
